In all, about 420,000 compounds went through this assay and about 64,000 (15%) were called active. Inconclusive results, whose numbers are uncertain, are shown with a selection of clear calls. The call rests on the fitted dose curve; in most records, active means well fitted inhibition curve with a large enough effect; inconclusive means small, poorly fitted or top-dose-only effect; inactive means flat fitted curve, though single readings scatter. Potencies of inconclusive entries are left out as doubtful fits.
Assay: qHTS for Inhibitors of human tyrosyl-DNA phosphodiesterase 1 (TDP1): qHTS in cells in absence of CPT; further: nearly all actives have a fitted effect of over 55% in size
Settings: DT40 Tdp1-/- hTDP1 cells, no CPT, ATP luminescence, 48 h; activity change, negative = growth inhibition: at 46.2 µM (top of the series)
Method in brief: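 No-CPT arm: Tdp1-/-;hTDP1 DT40 cells (400/well) plus compounds, incubated ≥48 hr at 37 °C. Readout CellTiter-Glo luminescence.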
On the % scale 0 is the no-effect control and ±100 the full control effect; potency means the concentration at half of the fitted maximal effect; tags describe the fitted curve by direction and shape.

Row | SMILES | Potency | activity change, negative = growth inhibition
1 | Nc1nonc1-n1nnc(C(=O)N/N=C/c2ccc(F)cc2)c1-c1cccs1 | inconclusive [inhibitor, single point] | 
2 | Cc1ccc2nc(N3CCN(c4cccc(Cl)c4)CC3)c3nnnn3c2c1 | inconclusive [inhibitor, single point] | 
3 | Cc1c(NC(=O)C(C)OC(=O)c2cc3c4ccccc4n(C)c3s2)c(=O)n(-c2ccccc2)n1C (stereo not drawn) | inconclusive [inhibitor, partial curve] | 
4 | O=C(Nc1ccc([N+](=O)[O-])cc1Cl)c1cccc([N+](=O)[O-])c1 | inactive | 
5 | COC(=O)c1ccc(C(NC(=O)OCc2ccccc2)/C(C)=C/[C@@H](C)C(=O)NCc2ccc(-c3ccccc3)cc2)cc1 (stereo partly drawn) | inconclusive [inhibitor, single point] | 
6 | Cc1ccc(S(=O)(=O)N2CC(C)N(C(=O)N3CCOCC3)C2C)cc1 (stereo not drawn) | inactive | 
7 | Cc1ccc(NC(=O)COc2coc(CN3CCN(c4ccccc4)CC3)cc2=O)cc1 | active: 20.6 µM | 
8 | COc1ccc(-c2nn(-c3ccccc3)cc2/C=C/C(=O)NCCCn2ccnc2)cc1OC | active: 14.6 µM | 
9 | Cc1ccc2nc3ccc(N4CCN(C)CC4)nn3c(=O)c2c1 | inconclusive [inhibitor, single point] | 
10 | COc1cc(/C=C2/SC(=S)N(Cc3ccccc3)C2=O)cc(OC)c1O | inactive | 
11 | CC(=O)C1CCC2C3CCC4=CC(=O)CCC4(C)C3(F)C(O)CC12C (stereo not drawn) | active: 23.1 µM | 
12 | COc1ccc(S(=O)(=O)N2CCOCC2)cc1NC(=O)c1ccc2c(c1)OCCO2 | inconclusive [inhibitor, single point] | 
13 | COc1ccc(NC(=O)COc2ccccc2)c(OC)c1 | inconclusive [inhibitor, partial curve] | 
14 | CCOC(=O)C1=CCN(S(=O)(=O)c2ccccc2F)C1c1ccc(Cl)c(Cl)c1 (stereo not drawn) | inconclusive [inhibitor, single point] | 
15 | COC(=O)c1nn(-c2ccc(OC)cc2)c(=O)cc1NN | inactive | 
16 | C#CCNC(=O)C1=C[C@H](c2coc3ccccc3c2=O)[C@@H](CCCO)[C@H](OCC)O1 | inactive | 
17 | CCOC(=O)c1c(NC(=O)c2cccc(N3C(=O)CCC3=O)c2)sc(C)c1C | inconclusive [inhibitor, partial curve, poor fit] | 
18 | COC(=O)C1=C(C(=O)OC)C2(OC1c1ccc(Br)cc1)C(=O)c1ccccc1C2=O (stereo not drawn) | inactive | 
19 | Cn1cccc1C(=O)NC(=O)COC(=O)C12CC3CC(CC(O)(C3)C1)C2 | inactive | 
20 | CN1C(C(=O)Nc2ccccn2)C(=O)c2sc(Cl)cc2S1(=O)=O (stereo not drawn) | inactive | 
21 | CC(C)(C)CC(C)(C)N=C1Nc2ccc(Cl)cc2N[C@]12C[C@H]1CCCC(=O)N3CC[C@@H](C2)[C@@H]13 | inconclusive [inhibitor, single point] | 
22 | COc1cc(/C=N/NC(=O)c2cccc([N+](=O)[O-])c2)cc(OC)c1O | inconclusive [inhibitor, single point] | 
23 | COC(=O)/C(C#N)=C/c1c[nH]c2ccccc12 |  | inconclusive: -31.4% [inhibitor]
24 | O=C(Nc1cccc(-n2cnnn2)c1)c1cccc(Cl)c1 | inconclusive [inhibitor, single point] | 
25 | CCOC(=O)N1CCN(C(=O)Cc2ccccc2[N+](=O)[O-])CC1 | inactive | 

Row | SMILES | Potency | activity change, negative = growth inhibition
26 | CC(C)C(NS(=O)(=O)c1cccc(C(F)(F)F)c1)C(=O)NCc1cccs1 (stereo not drawn) | inconclusive [inhibitor, single point] | 
27 | O=C(C[n+]1ccc(Cl)c2ccc(Cl)cc21)c1ccc(F)cc1 | active: 3.55 µM | 
28 | CCSc1nnc(NC(=O)c2csc3c2CCC(C)C3)s1 (stereo not drawn) | inconclusive [inhibitor, single point] | 
29 | Cc1c(C(=O)N(Cc2ccccc2)Cc2cccnc2)cnn1-c1ccc(F)cc1 | inactive | 
30 | CC(C)CN1CCN(CC#Cc2ccccc2)CC1CCO (stereo not drawn) | inactive | 
31 | Cc1ccc(S(=O)(=O)N2CCC(C(=O)OCC(=O)N(Cc3ccccc3)C(C)(C)C)CC2)cc1C | inconclusive [inhibitor, partial curve] | 
32 | CCN1C(=O)/C(=C2\C=Cc3cc(C)ccc3N2CC)OC1=S | inconclusive [inhibitor, partial curve] | 
33 | O=C(Nc1ccccc1)c1ccc(CN2CCC(Cc3ccccc3)CC2)cc1 | inconclusive [inhibitor, single point] | 
34 | Cc1cc(=O)[nH]c(N/N=C/c2c(C)nn(-c3ccc(F)cc3)c2Cl)n1 | inconclusive [inhibitor, partial curve] | 
35 | COc1ccc2[nH]c(=O)c(CN(Cc3ccco3)C(c3nnnn3Cc3ccccc3)C(C)C)cc2c1 (stereo not drawn) | active: 20.6 µM | 
36 | Nn1c(Cc2cccc3ccccc23)nnc1SCc1ccccc1Cl | inconclusive [inhibitor, partial curve, poor fit] | 
37 | COc1ccc(OCCCC(=O)OCC(=O)NNC(=O)c2ccc([N+](=O)[O-])cc2)cc1 | inactive | 
38 | COc1cc2cc(C)nc(Cc3cccc4ccccc34)c2cc1OC | active: 23.1 µM | 
39 | COc1ccc(S(=O)(=O)N/N=C\c2ccc(OC)c(COc3ccc(C)cc3[N+](=O)[O-])c2)cc1 | inconclusive [inhibitor, single point] | 
40 | O=C(c1ccc2c(c1)N(Cc1ccccc1F)C(=O)c1ccccc1S2=O)N1CCCCC1 (stereo not drawn) | inactive | 
41 | O=C(CCc1ccccc1)OCC(=O)c1ccc([N+](=O)[O-])cc1 | inconclusive [inhibitor, single point] | 
42 | COc1ccc(S(=O)(=O)N2CCCCC2)cc1NC(=O)CN(C)C1CCCCC1 | inconclusive [inhibitor, single point] | 
43 | CCCCNC(=O)C1CCC(CNS(=O)(=O)c2c(C)cc(C)cc2C)CC1 (stereo not drawn) | inconclusive [inhibitor, single point] | 
44 | COc1ccc(/C=C/C(=O)c2ccc([N+](=O)[O-])o2)cc1OC | active: 1.16 µM | 
45 | COc1ccc(C(=O)Nc2cccc(NC(=O)c3cccs3)c2)cc1OC | active: 13 µM | 
46 | Cc1ccnc(NC(=O)CCNS(=O)(=O)c2ccc(C)c(C)c2)c1 | inactive | 
47 | COc1ccccc1C(=O)Nc1ccccc1SCc1cc(=O)c2ccccc2[nH]1 | inconclusive [inhibitor, single point] | 
48 | O=C(O)c1ccc(CNC(=O)c2ccccc2NC(=O)c2ccc([N+](=O)[O-])cc2)cc1 | inactive | 
49 | O=C(NCc1ccccc1)c1cc(C2CCCCN2C(=O)CCCc2ccccc2)on1 (stereo not drawn) | inconclusive [inhibitor, single point] | 
50 | CCN(CC)C(=O)Cn1c(=O)n(CCCCCC(=O)NCc2ccccc2)c(=O)c2sccc21 | inactive | 

Row | SMILES | Potency | activity change, negative = growth inhibition
51 | CCOc1cc(CNCC(O)c2ccccc2)cc(Cl)c1OC (stereo not drawn) | inactive | 
52 | Cc1ccc(NC(=O)COC(=O)C2COc3ccccc3O2)cc1 (stereo not drawn) | inactive | 
53 | COc1ccc(OC)c(C(=O)/C=C/c2cccnc2)c1 | active: 11.6 µM | 
54 | CC(C)(C)n1nnnc1C(c1ccccc1)N1CCN(c2ncccn2)CC1 (stereo not drawn) | inactive | 
55 | Cc1ccccc1N1CCN(c2ccccc2NC(=O)/C=C\C(=O)O)CC1 | inconclusive [inhibitor, single point] | 
56 | Cc1onc(-c2ccccc2)c1C(=O)N/N=C/c1cn(C)c2ccccc12 | inconclusive [inhibitor, partial curve] | 
57 | CCN(CC)c1ccc(S(=O)(=O)N2CCCCC2)cc1NC(=O)C1CCC1 | inconclusive [inhibitor, single point] | 
58 | O=C(Nc1ccc2nn(-c3ccccc3)nc2c1)c1ccc2c(c1)OCO2 | active: 20.6 µM | 
59 | CN(CC(=O)Nc1cc(S(=O)(=O)N2CCCC2)ccc1Cl)Cc1ccc2c(c1)OCO2 | inconclusive [inhibitor, single point] | 
60 | COc1ccc(C2/C=C\CC(NC(=O)OCC3c4ccccc4-c4ccccc43)CC(=O)N2Cc2ccccc2F)cc1 (stereo not drawn) | inconclusive [inhibitor, single point] | 
61 | CN1CCc2nc3ccc(Cl)cc3c(-c3ccccc3Cl)c2C1 | inconclusive [inhibitor, single point] | 
62 | CCCCNC(=O)CNC(=S)N(Cc1ccccc1F)C1CCCCC1 | inconclusive [inhibitor, single point] | 
63 | CCOc1ccc(-c2csc(-c3nc(-c4ccc(Br)s4)cs3)n2)cc1 | inactive | 
64 | Cc1c(C(=O)NCc2ccccc2)sc(=O)n1Cc1ccccc1F | inconclusive [inhibitor, single point] | 
65 | COc1cc(C#N)c(NS(=O)(=O)c2ccc3[nH]c(=O)sc3c2)cc1OC | inactive | 
66 | CC(=O)Nc1cccc(Oc2ncnc3scc(-c4ccccc4)c23)c1 | active: 10.3 µM | 
67 | O=c1c(-c2cccs2)nc2cnc(N3CCNCC3)nc2n1C1CC1 | active: 20.6 µM | 
68 | O=C(NCCCc1ccccc1)C1CCC(=O)N(CCc2ccc(Cl)cc2)C1 (stereo not drawn) | inconclusive [inhibitor, single point] | 
69 | CCNC(=O)N(C)c1c(CC)nc2ccc(C(=O)N3CCN(C(=O)c4ccco4)CC3)cn12 | inactive | 
70 | COc1ccc(S(=O)(=O)N2CCOCC2)cc1NC(=O)c1cccs1 | inactive | 
71 | NC1=NC(=O)C(Cc2cc(Cl)ccc2Cl)S1 (stereo not drawn) | inactive | 
72 | O=C(c1ccc(Cl)c(S(=O)(=O)N2CCOCC2)c1)N(c1ccccn1)C1CCCCC1 | active: 16.4 µM | 
73 | COc1cc(NC(=O)CSc2nc3c(c(=O)[nH]2)CCCC3)cc(OC)c1OC | inactive | 
